{
  "source": "patent US20220348657A1",
  "about": "(Five Prime, published 2022)",
  "experiment_in_all_cases": "cell-based or functional assay",
  "key": {"[1]": {"target": "T1, CD28 expressed on the surface of TCR/CD3 Effector Cells (Promega cat #J129A) (UniProt P10747 19-220, limits assumed)"}, "[2]": {"target": "T1, CD28 expressed on the surface of …", "remark": "listed apart in the source"}, "[3]": {"target": "T1, CD28 expressed on the surface of …", "remark": "listed apart in the source"}, "[4]": {"target": "T1, CD28 expressed on the surface of …", "remark": "listed apart in the source"}},
  "data": [
    {"binder": "CD80 ECD-Fc fusion protein (Human CD80 ECD Human Fc IgG1 WT) (Fc fusion) VIHVTKEVKEVATLSCGHNVSVEELAQTRIYWQKEKKMVLTMMSGDMNIWPEYKNRTIFDITNNLSIVILALRPSDEGTYECVVLKYEKDAFKREHLAEVTLSVKADFPTPSISDFEIPTSNIRRIICSTSGGFPEPHLSWLENGEELNAINTTVSQDPETELYAVSSKLDFNMTTNHSFMCLIKYGHLRVNQTFNWNTTKQEHFPDN[gap - human IgG1 Fc with changes]", "values": [
      {"measurement": "C (EC50); activator cells sorted by CD64: High", "setting": "[1]", "result": 0.0267, "unit": "µg/mL"},
      {"measurement": "C (EC50); activator cells sorted by CD64: Low", "setting": "[1]", "result": 0.0155, "unit": "µg/mL"},
      {"measurement": "C (EC50); activator cells sorted by CD64: Medium", "setting": "[1]", "result": 0.0136, "unit": "µg/mL"},
      {"measurement": "C (EC50); activator cells sorted by CD64: Pool", "setting": "[1]", "result": 0.0129, "unit": "µg/mL"},
      {"measurement": "D/A (fold response); activator cells sorted by CD64: High", "setting": "[1]", "result": 4.7},
      {"measurement": "D/A (fold response); activator cells sorted by CD64: Low", "setting": "[1]", "result": 4.2},
      {"measurement": "D/A (fold response); activator cells sorted by CD64: Medium", "setting": "[1]", "result": 5.2},
      {"measurement": "D/A (fold response); activator cells sorted by CD64: Pool", "setting": "[1]", "result": 5.1},
      {"measurement": "C (EC50); M1 activator cells, 20 K cells per well", "setting": "[2]", "result": 0.022, "unit": "µg/mL"},
      {"measurement": "C (EC50); M1 activator cells, 40 K cells per well", "setting": "[2]", "result": 0.051, "unit": "µg/mL"},
      {"measurement": "C (EC50); M1 activator cells, 60 K cells per well", "setting": "[2]", "result": 0.065, "unit": "µg/mL"},
      {"measurement": "C (EC50); M1 activator cells, 80 K cells per well", "setting": "[2]", "result": 0.082, "unit": "µg/mL"},
      {"measurement": "D/A (fold response); M1 activator cells, 20 K cells per well", "setting": "[2]", "result": 6.2},
      {"measurement": "D/A (fold response); M1 activator cells, 40 K cells per well", "setting": "[2]", "result": 5.9},
      {"measurement": "D/A (fold response); M1 activator cells, 60 K cells per well", "setting": "[2]", "result": 6},
      {"measurement": "D/A (fold response); M1 activator cells, 80 K cells per well", "setting": "[2]", "result": 6.6},
      {"measurement": "C (EC50); M1 activator cells cultured 1 week", "setting": "[3]", "result": 0.0507, "unit": "µg/mL"},
      {"measurement": "C (EC50); M1 activator cells cultured 3 weeks", "setting": "[3]", "result": 0.0505, "unit": "µg/mL"},
      {"measurement": "C (EC50); M1 activator cells cultured 4 weeks", "setting": "[3]", "result": 0.0514, "unit": "µg/mL"},
      {"measurement": "C (EC50); activator cells sorted by OKT3: High", "setting": "[4]", "result": 0.0059, "unit": "µg/mL"},
      {"measurement": "C (EC50); activator cells sorted by OKT3: Low", "setting": "[4]", "result": 0.00476, "unit": "µg/mL"},
      {"measurement": "C (EC50); activator cells sorted by OKT3: Medium", "setting": "[4]", "result": 0.00462, "unit": "µg/mL"},
      {"measurement": "C (EC50); activator cells sorted by OKT3: Pool", "setting": "[4]", "result": 0.00531, "unit": "µg/mL"}
    ]}
  ]
}
